Measurements from PubChem BioAssay AID1347073 (National Center for Advancing Translational Sciences (NCATS), 2019).
The campaign covered roughly 45,000 compounds. About 200 (0.44%) were called active. Roughly 7% stayed inconclusive and do not appear here. Calls come from the whole dose curve; as a rule, active = well fitted activation curve with a large enough effect; inconclusive = small, poorly fitted or top-dose-only effect; inactive = no such curve, though single readings can be large or run the other way. This is one part of the list.

assay: qHTS of TDP-43 Inhibitors: NCGC Sytravon Library Screen; conditions: yeast TDP-43 toxicity rescue, BacTiter-Glo growth, 24 h; series mostly up to 46.1 µM; growth rescue (activation): at the top concentration; note: 0% is about no effect; nearly all actives have a fitted effect of over 55% in size
In short: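 TDP-43-expressing yeast, pregrown in raffinose, seeded at OD600 0.02 in galactose medium with compound for 24 hr at 30 deg C. Growth read by BacTiter-Glo luminescence, so rescue of toxicity appears as activation.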

Row | SMILES | growth rescue (activation)
1 | C=CCN1CC2CC3(COc4cc(C)cc(C)c4)C=CC2(O3)C1=O (configuration not stated) | inactive: 23.5%
2 | CC(=O)Nc1cccc(NC(=O)C(F)(F)F)c1 | inactive: 0.538%
3 | COc1cccc(NC(=O)C/C(C)=N/NC(=O)C2CCCCC2)c1 | inactive: -7.36%
4 | O=C(Nc1cccc(C(F)(F)F)c1)c1csc([C@H]2C[C@H](O)[C@@H](CO)O2)n1 | inactive: -9.27%
5 | COc1ccc(Nc2c3c(nc4c(-c5ccccc5)c(C)nn24)CCC3)cc1 | inactive: -1.98%
6 | Cc1c(C(=O)NCC2CCCO2)cccc1[N+](=O)[O-] (configuration not stated) | inactive: 17%
7 | O=C(C(Cc1ccc(Cl)cc1)NS(=O)(=O)c1ccccc1)N1CC[C@@]2(O)CCCC[C@H]2C1 (some centres not stated) | inactive: -0.149%
8 | NS(=O)(=O)c1ccc(CCNC(=O)CN2CCN(Cc3cccc(C(F)(F)F)c3)CC2)cc1 | inactive: -3.12%
9 | O=C(CCN1C(=O)C2C3C=CC(C3)C2C1=O)Nc1ccc2ncccc2c1 (configuration not stated) | inactive: 8.67%
10 | O=C(O)c1ccc(NC(=O)C2(c3ccccc3)CCCC2)cc1 | inactive: 22%
11 | CC(NC(=O)c1cccs1)c1nnc(SCc2ccc(Cl)cc2Cl)n1C (configuration not stated) | inactive: 12.1%
12 | O=C(CN(CC1CCCO1)C(=O)CNS(=O)(=O)c1ccccc1)NCc1ccc(F)cc1 (configuration not stated) | inactive: 1.89%
13 | COc1cccc(C2c3[nH]c4ccccc4c3CCN2Cc2ncc[nH]2)c1 (configuration not stated) | inactive: 20.1%
14 | CN(C(=O)NC1CCCCC1)c1ccccc1 | inactive: 14.2%
15 | CCOC(=O)CSc1nc2cc3c(cc2cc1C#N)OCCO3 | inactive: 1.79%
16 | O=C(COc1ccccc1)Nc1ccc(S(=O)(=O)Nc2ncccn2)cc1 | inactive: -10.8%
17 | COCCCNC(=O)c1csc([C@H]2C[C@H](O)[C@@H](CO)O2)n1 | inactive: 10.5%
18 | CCOc1ccc(N2C(=O)CC(N(CCc3ccc(S(N)(=O)=O)cc3)C(C)=O)C2=O)cc1 (configuration not stated) | inactive: 2.18%
19 | Cc1nc(NC(=O)c2ccc(Cl)cc2)nc2cc3c(cc12)OCO3 | inactive: 3.81%
20 | O=C1Nc2ccccc2N=C(c2ccccc2)C1Br (configuration not stated) | inactive: 0.312%
21 | Cc1ccc(CNC(=O)c2cc3sc(Cl)cc3n2C)cc1 | inactive: 19.1%
22 | CCC(=O)c1ccc(N2CCN(S(=O)(=O)c3ccccc3)CC2)c(F)c1 | inactive: 1.36%

Row | SMILES | growth rescue (activation)
23 | CCNc1nc(Cl)nc(N(NC(C)=O)C(C)C)n1 | inactive: -0.829%
24 | CCOC(=O)c1c(C)[nH]c(=S)c(C#N)c1-c1ccccc1 | inactive: 30.1%
25 | Cc1ccc(CNc2nc(C)cs2)cc1 | inactive: -21%
26 | CCNS(=O)(=O)c1ccc(CCC(=O)Nc2ccc(C(=O)OC)cc2)cc1 | inactive: 4.61%
27 | O=C(CSc1nc(-c2ccccc2)cc(=O)[nH]1)Nc1ccc(Br)cc1 | inactive: -19.5%
28 | O=C(CNC(=O)c1ccc(Br)cc1)NCc1cccnc1 | inactive: 5.21%
29 | C/C(=N/NC(=O)c1cccc(N2CCCC2=O)c1)c1ccncc1 | inactive: 10.7%
30 | COc1ccc(NS(=O)(=O)c2cccc(C(=O)NCC(c3cccs3)N3CCOCC3)c2)cc1 (configuration not stated) | inactive: 13%
31 | CCOC(=O)/C(=C/c1ccc(OC(F)F)cc1)C1=Nn2c(nnc2-c2ccc(Cl)cc2)SC1 | inactive: 14.4%
32 | COc1c(C)cc(C(=O)C2CCCN(C(=O)c3ccc4[nH]ccc4c3)C2)cc1C (configuration not stated) | inactive: 8.55%
33 | O=S(=O)(CC(CN1CCCCC1)N1CCCCC1)c1ccc2ccccc2c1 (configuration not stated) | inactive: 8.31%
34 | CC(C)=C(NC(=O)c1ccccc1)C(=O)N/N=C(\C)c1ccccc1O | inactive: 12.4%
35 | O=c1c2ccccc2cnn1Cc1nnc(-c2cccs2)o1 | inactive: -17%
36 | Cc1ccc(S(=O)(=O)N2CCN(Cc3ccccc3)CC2)c(C)c1N(C)S(=O)(=O)c1ccccc1 | inactive: 7.61%
37 | O=C1Nc2cc(C(=O)N3CCN(c4ccc(F)cc4)CC3)ccc2NC1CSCc1cccc(F)c1 (configuration not stated) | inactive: -21.2%
38 | CCc1ccc(NS(=O)(=O)c2ccc3c(c2)CCN3C(=O)CCC(=O)O)cc1 | inactive: -6.11%
39 | c1cc(-c2ccc3c(c2)CCO3)n2cnnc2c1 | inactive: 5.38%
40 | COC(C(=O)Nc1ccc(S(=O)(=O)Nc2ccc(F)cc2)cc1)c1ccccc1 (configuration not stated) | inactive: -14.3%
41 | CC(=O)Nc1cccc(-c2ccnc3c2CC(C(=O)NCc2ccc(N(C)C)cc2)O3)c1 (configuration not stated) | inactive: -1.43%
42 | COc1ccc(/C(O)=C2/C(=O)C(=O)N(CC3CCCO3)C2c2ccc(O)c(OC)c2)cc1 (configuration not stated) | inactive: -2.9%
43 | Cc1cc(C)c2c(=O)[nH]c(SCC(=O)Nc3cccc(S(=O)(=O)N(C)C)c3)nc2n1 | inactive: 26.5%
44 | COc1ccc(OC)c(N/C=C/C(=C(C#N)C#N)N(C)C)c1 | inactive: 1.29%

Row | SMILES | growth rescue (activation)
45 | CCCSc1nc2sc3c(c2c(=O)[nH]1)CC(C)CC3 (configuration not stated) | inactive: 10%
46 | Cc1ccc2c(c1)C1C[N+](C)(CC(=O)c3ccccc3)CCC1N2C(=O)c1ccccc1Cl (configuration not stated) | inactive: 28.3%
47 | COCCNC(=S)N/N=C(\C)CCc1ccc2c(c1)OCO2 | inactive: 11.7%
48 | COc1ccc(/C=C/C(=O)Nc2ccc(S(=O)(=O)Nc3cc(C)nc(C)n3)cc2)cc1OC | inactive: 15%
49 | CN1CCN(NC(=O)c2cccc(C(F)(F)F)c2)CC1 | inactive: 21.7%
50 | Cc1cc(C(=O)NCCc2ccc(Cl)cc2)n(-c2ccccc2)n1 | inactive: -4.61%
51 | CCOC(=O)C1(C(F)(F)F)N=C(C(F)(F)F)Nc2cc(C)c(C)cc21 (configuration not stated) | inactive: 2.95%
52 | OCCCCNCc1ccc(OCc2ccccc2)cc1 | inactive: 13.6%
53 | CC(C)OC(=O)c1ccc(COC(=O)CNC(=O)c2ccco2)cc1 | inactive: 19%
54 | COc1ccc(CNC(=O)c2cc3cccc(OC)c3oc2=N)cc1 | inactive: 16.3%
55 | O=C(/C=C/c1c(Cl)nc2ccccn12)Nc1ccc(F)cc1 | inactive: 4.46%
56 | CC(C)(C)c1ccc(OCC(=O)NN2Cc3ccccc3C2=N)cc1 | inactive: 5.53%
57 | COc1ccccc1N1CCN(c2ccc(Cl)nn2)CC1 | inactive: 19.5%
58 | CCOC(=O)Cc1csc(NC(=S)NC(=O)c2cccc([N+](=O)[O-])c2)n1 | inactive: -9.08%
59 | Cc1ccc(-c2ccc(CCC(=O)O)n2NC(N)=S)cc1 | inactive: 6.36%
60 | Cc1nn(Cc2ccccc2)c(C)c1NC(=O)CCCn1nc([N+](=O)[O-])cc1C | inactive: -2.15%
61 | O=C(O)c1cccc(-c2nc3ccccc3[nH]2)c1 | inactive: -21.7%
62 | N#C/C(=C/c1ccc(Br)s1)C(=O)NCCc1c[nH]c2ccccc12 | inactive: 1.43%
63 | O=C(Cc1ccccc1)N1CCNCC1 | inactive: 2.21%
64 | Cc1cc2oc(=O)cc(CNc3ccccc3F)c2cc1O | inactive: -2.41%
65 | CC(=O)c1ccc(N2Cc3ccccc3/C2=N\C(=O)Nc2ccc(Cl)cc2)cc1 | inactive: 14.6%
66 | Cc1ccc(NC(=O)CSc2nnc3ccccn23)cc1S(=O)(=O)N1CCOCC1 | inactive: 0.896%

Row | SMILES | growth rescue (activation)
67 | CCOc1cccc(OCCNC2CCCC2)c1 | inactive: -37.4%
68 | Cc1ccccc1S(=O)(=O)NC(=O)C1(C)CCN1C(=O)CCc1ccc(Cl)cc1Cl (configuration not stated) | inactive: 13.4%
69 | CN(C)c1cccc(C(=O)OCc2cc(=O)oc3cc(O)ccc23)c1 | inactive: 35.4%
70 | Cc1ccccc1C(=O)Oc1cc(N)n(S(C)(=O)=O)n1 | inactive: 14.9%
71 | Cn1cnc(S(=O)(=O)N2CCCCC2c2cc(C(=O)Nc3ccccc3Cl)no2)c1 (configuration not stated) | inactive: 2.27%
72 | O=C(c1ccc2c(c1)N(Cc1ccccc1)C(=O)c1ccccc1S2(=O)=O)N1CCOCC1 | inactive: 16.2%
73 | CCN(C(=O)c1cccs1)c1nc(-c2ccc(OC)cc2)cs1 | inactive: 1.72%
74 | COC(=O)Cc1ccc(OC2(C)CCN(Cc3ccc(-c4ccccn4)cc3)C2)cc1 (configuration not stated) | inactive: -5.86%
75 | Cc1nn2c(=O)c(NC(=O)c3ccc(Cl)cc3)cnc2s1 | inactive: 0.165%
76 | CC(C)(C)c1cc(C(=O)N/N=C/c2ccccc2O)n(-c2ccccc2)n1 | inactive: -3.7%
77 | Cc1nc2sc(C(c3ccc(F)cc3)N3CCN(C(=O)c4ccco4)CC3)c(O)n2n1 (configuration not stated) | inactive: 8.21%
78 | Cc1ccc(C)c2[nH]c(=O)c(CN(CCN3CCCC3)C(=O)Nc3ccc(F)cc3)cc12 | inactive: -19.9%
79 | O=C(COc1ccc(S(=O)(=O)N2CCCC2)cc1)N1CCCC1 | inactive: 19.7%
80 | Cc1nnc(NC(=O)CSc2n[nH]c(-c3ccccc3C)n2)s1 | inactive: -6.66%
81 | COc1ccc(CCNC(=O)c2cccc(-n3cnnn3)c2)cc1 | inactive: 9.49%
82 | COC(=O)c1sccc1NC(=O)c1ccncc1 | inactive: 14.9%
83 | COc1ccc(N=C2SC(C(=O)Nc3ccc4c(c3)OCO4)CC(=O)N2C)cc1 (configuration not stated) | inactive: 19.7%
84 | COc1cc(NC(=O)COC(=O)/C=C/c2c(C)nn(-c3ccc(F)cc3)c2Cl)cc(OC)c1 | inactive: 3.48%
85 | CCOc1ccc(CCNC(=O)CN2C(=O)CCSc3ccccc32)cc1 | inactive: 13.1%
86 | COc1ccc(Cc2nnc(N/N=C/c3ccc(O)cc3)[nH]c2=O)cc1OC | inactive: 5.61%
87 | Cc1ccc(NC(=O)CN2C(=O)N/C(=C\c3cccnc3)C2=O)cc1 | inactive: 12.8%
88 | Nc1nc2cc(S(=O)(=O)N3CCOCC3)ccc2o1 | inactive: -7.64%

Row | SMILES | growth rescue (activation)
89 | COc1cccc2cc(C(C)N(CCCN3CCOCC3)C(=O)Nc3ccccc3)oc12 (configuration not stated) | inactive: 8.26%
90 | CC(NC(=O)COC(=O)Cc1ccsc1)c1ccccc1 (configuration not stated) | inactive: 23.2%
91 | N#Cc1ccc(COC(=O)CN2C(=O)NC3(CCCC3)C2=O)cc1 | inactive: -3.56%
92 | CC(=O)c1ccc(OCCOc2ccc(Cl)c3cccnc23)cc1 | inactive: -1.51%
93 | CCCCN(CC)CCCNC(=O)c1cc2cc3ccc(C)cc3nc2o1 | inactive: -2.1%
94 | Nc1nonc1-n1nnc(C(=O)N/N=C/c2ccc(Cl)cc2Cl)c1CN1CCCCC1 | inactive: -4.49%
95 | CN1CCN(C(=O)CCN2C(=O)/C(=C/c3ccccc3Cl)SC2=S)CC1 | inactive: 7.4%
96 | O=C1N/C(=N/S(=O)(=O)c2ccccc2)S/C1=C/c1cccnc1 | inactive: 7.47%
97 | CC(C)CNC(=O)CSc1nnc(-c2ccc(Cl)cc2)n1N | inactive: -5.41%
98 | CCOC(=O)C1(C)CCCN1C(=O)c1cncc(Br)c1 (configuration not stated) | inactive: 6.74%
99 | COc1ccc(-n2ncc3c(N4CCN(Cc5ccccc5)CC4)ncnc32)cc1 | inactive: 3.16%
100 | COC(=O)CSc1nc(NCc2ccccc2)nc(N(C)C)n1 | inactive: 7.97%
101 | CCOc1ccc(C(=O)NCCC2=CCCCC2)cc1OCC | inactive: 13.7%
102 | COc1ccc(CN2CCNC(=O)C2CC(=O)NCc2cn3ccc(C)cc3n2)c(OC)c1 (configuration not stated) | inactive: -14.1%
103 | CCOc1ccc(NC(=S)N(C)C)cc1 | inactive: 2.07%
104 | COC(=O)c1cc(NS(=O)(=O)c2ccc(NC(C)=O)cc2)ccc1Cl | inactive: 24.4%
105 | COc1ccc(CN2CCNC(=O)C2CC(=O)NC2CCOCC2)c(F)c1 (configuration not stated) | inactive: 8.49%
106 | COc1ccc2c(c1)NC(c1cc(Cl)cc(Cl)c1O)c1cccn1-2 (configuration not stated) | inactive: 3.79%
107 | Cc1cc(=O)c(C(=O)Nc2ccc(N3CCOCC3)cc2N2CCOCC2)nn1-c1ccccc1Cl | inactive: -2.17%
